This is one part of the list. Further columns of the screen follow, without active or inactive calls. Compounds called inactive in the main read-out are mostly missing here.
Assay: beta-lactam sensitization of Mtb H37Rv, H37Rv (AID 434955);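 note: growth measured after seven days incubation then overnight dye step; 0% = bacteria only wells and 100% = bacteria with antibiotic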
Conditions: M. tuberculosis H37Rv growth with meropenem, percent inhibition; measured here: primary screen without meropenem; at 25 µM

SMILES	inhibition [%]
NNC(=S)NC1CC2CC1C1C=CCC21 (stereo unspecified)	17.2
Cc1ccccc1OCC(=O)NCC(=O)OCC(=O)c1ccc([N+](=O)[O-])cc1	2.15
COc1ccc(F)cc1S(=O)(=O)N1CC(C)CC(C)C1 (stereo unspecified)	3.1
Cc1ccc(OCC(=O)N/N=C\c2c(C)n(C)c3ccccc23)c([N+](=O)[O-])c1	-12.1
COc1ccc(N(CC(=O)Nc2ccccc2C(=O)N2CCCC2)S(=O)(=O)c2ccccc2)cc1	3.17
Cc1cc(=O)n2c(-c3ccccc3C)n[nH]c2n1	24.3
NNc1nc2c(Cl)cccc2s1	19.5
COc1cc(C(=O)Oc2ccccc2/C=N/NC(=O)c2ccc(C)c(Cl)c2)cc(OC)c1OC	-4.28
CC(C)CCN1CC(O)=C(c2nc3ccccc3[nH]2)C1=N	16.1
COc1ccccc1OCC(=O)NCC1CCCN(C(=O)c2ccccc2C(C)=O)C1 (stereo unspecified)	-3.51
O=C(CN1CCN(c2ccc(F)cc2)CC1)Nc1ccccc1C(=O)NCCc1ccccc1	81.5
CCCCCn1c(=O)[nH]c2cc(C(=O)NCc3ccco3)ccc2c1=O	7.77
CCC(=O)N1C(C(=O)O)CSC1c1ccc(OC)cc1 (stereo unspecified)	1.16
Nc1c(S(=O)(=O)c2cccs2)c2nc3ccccc3nc2n1CC1CCCO1 (stereo unspecified)	6.64
COc1ccc([N+](=O)[O-])cc1NC(=O)C1CCCNC1=O (stereo unspecified)	1.96
CC(C)n1cc(CN2CCC(Oc3ccc(C(=O)N4CCCC4)cc3)CC2)cn1	3.95
COC(=O)c1sc(-c2ccc(Cl)cc2)cc1NC(=O)COCC(=O)O	36.4
COc1ccc(C(=O)N(C)Cc2ccc(C)o2)cc1OC1CCN(C(C)=O)CC1	-1.9
COCCCN1C(=O)c2ccccc2C1C(=O)NC1CCCCCC1 (stereo unspecified)	-10.3
NCCS	7.24
COc1cc([C@@H]2c3cc4c(cc3[C@@H](O)[C@@H](CO)[C@@H]2CO)OCO4)cc(OC)c1O[Si](C)(C)C(C)(C)C	29.2
CCCC(=O)N(Cc1cc(=O)[nH]c2ccccc12)c1ccccc1C	1.01

SMILES	inhibition [%]
CC1(C)CC(=O)c2sc(NS(=O)(=O)c3ccc([N+](=O)[O-])cc3)nc2C1	-0.39
COc1ccccc1N1CCN(C2CCCN(S(=O)(=O)c3cccc(Cl)c3)C2)CC1 (stereo unspecified)	3.63
COc1ccc(Cl)cc1NC(=O)C1CCCN(c2cc(C)nc3ncnn23)C1 (stereo unspecified)	-6.41
Cc1ccc(NC(=O)Nc2cccs2)nc1	-0.29
O=C(c1ccccc1NS(=O)(=O)c1ccccc1[N+](=O)[O-])N1CCCC1	3.86
CSc1ccccc1C(=O)Nc1ccc2c(c1)OCCO2	18.1
CC(=O)c1c(OC(=O)c2cccc(Cl)c2)c2ccccc2n1C	45.6
CC(=O)N1CCc2cc(Br)cc(S(=O)(=O)N3CCC(C(=O)O)CC3)c21	-8.79
CCCC(=O)N(c1ccc(OCC)cc1)S(=O)(=O)c1ccc2c3c(cccc13)C(=O)N2C	-0.3
Cc1ccc2c(c1)N(CC(=O)N1CCCCCC1)C(=O)c1cccnc1O2	2.83
COc1ccccc1NC(=O)Cn1c(=O)n(C)c(=O)c2sc3c(c21)COC(C)(C)C3	9.37
Cc1cccc(C(=O)N2CCC(N3CCC(C(=O)N4CCOCC4)CC3)CC2)c1	-6.83
COc1ccc2nc(NCCCNC(=O)c3cc(OC)c(OC)c(OC)c3)c(C#N)cc2c1	-6.73
O=C(CN(Cc1ccco1)C(=O)c1cccc(Cl)c1)Nc1c(Cl)cc(Cl)cc1Cl	2.32
N/C(=N\OC(=O)CC1CCCCC1)c1ccc(Cl)cc1	5.52
CCc1ccc2c(c1)C(=O)C(=O)N2CCS(=O)(=O)c1ccccc1	-1.45
O=C(Nc1nnc(-c2ccccc2SCc2ccccc2F)s1)Nc1ccccc1F	3.24
CCOc1ccccc1NC(=O)c1oc2ccccc2c1NC(=O)C1CC1	10.3
CC(=O)c1ccc(C(=O)N2CCCC(Nc3ccccc3)C2)s1 (stereo unspecified)	-4.41
CCn1ncc(Cl)c1C(=O)NC(=S)Nc1ccccc1Br	7.39
O=C(Cc1ccc(F)cc1)N/N=C/c1ccncc1	-5.43
CC12CCC(C/C1=N\N=C1\NC(=O)/C(=C\c3cccc(Br)c3)S1)C2(C)C (stereo unspecified)	21.6

SMILES	inhibition [%]
COc1nc(N/N=C/c2ccccc2F)nc(N2CCCCC2)n1	10.4
CC(C)N1CCc2c(sc(NC(=O)CCS(=O)(=O)c3ccccc3)c2C(N)=O)C1	-1.07
COc1cc(C(=O)NCc2nc(C)cs2)ccc1OC1CCN(C(C)=O)CC1	-3.64
O=C(c1ccc(Br)o1)N1N=C(c2ccc(Cl)cc2)CC1c1ccco1 (stereo unspecified)	-0.02
O=C(COC(=O)C1CC1)NCc1ccccc1Cl	34.2
O=C1CCCN1CN(C(=O)c1ccc2c(c1)OCO2)c1ccc(F)cc1	4.55
COc1ccc(/C(N)=N/OC(=O)CC2CCCCC2)cc1	-1.28
COc1ccccc1OCC(=O)N1CCCC(Nc2ccc(C)c(C)c2)C1 (stereo unspecified)	1.81
COc1cc(OC)cc(C(=O)Nc2nnc(SCC(=O)NCC3CCCO3)s2)c1 (stereo unspecified)	-0.49
COc1cccc(NC(=O)Cn2c(=O)n(C)c(=O)c3sc4c(c32)COC(C)(C)C4)c1	0.81
Cc1ccc(-n2nnnc2Sc2nc([N+](=O)[O-])nn2C)c(C)c1	36.1
Cc1nc2c(C(=O)NCc3ccc4c(c3)OCO4)c[nH]n2c(=O)c1Cc1ccccc1F	8.34
CCCCC(CC)CNC(=O)CCS(=O)(=O)c1cccc2nsnc12 (stereo unspecified)	-2.54
O=C(Nc1ccnn1C1CCN(C2CCC2)CC1)c1ccccc1	-0.89
O=C(NCc1ccccc1Cl)C1CCC(=O)N(C2CC2)C1 (stereo unspecified)	-10.3
Nc1nonc1C(=O)NCCNCc1cc(Br)ccc1OCc1ccccc1F	14.5
O=C(c1cnccn1)N(Cc1ccco1)C1(C(=O)NC2CCCC2)CCCCC1	-0.62
CSCCC(NC(=O)C1CCC(C)CC1)C(=O)NCc1ccco1 (stereo unspecified)	-7.36
O=C(CN1C(=O)COc2ccc(Cl)cc21)N1CCc2ccccc21	-0.45
CC(=O)Nc1ccc(S(=O)(=O)NCCN2CCNC2=O)cc1Cl	2.83
Cc1ccc(-c2onc(C)c2C)cc1S(=O)(=O)N1CC(C)Oc2ccccc21 (stereo unspecified)	2.41
CCOc1cc(CO)c(Br)cc1OCC(=O)O	0.7

SMILES	inhibition [%]
CSc1ccccc1OCc1cc(C(=O)NCCn2nc(C)cc2C)no1	0.49
Cc1oc2cc3oc(=O)c(CCC(=O)N[C@H](C(=O)O)C(C)C)c(C)c3cc2c1C	14.6
O=[N+]([O-])c1cccc(/C=N/n2cnnc2)c1O	9.89
O=C(CCC1CCN(C(=O)c2ccco2)CC1)NCc1ccc(F)cc1	-3.51
Nc1nc(C2C(=O)CCCC2=O)cs1	5.56
Cc1ccc(C(=O)N2CCC(C(=O)Nc3cccc([N+](=O)[O-])c3)CC2)cc1	-6.7
COc1cc(Br)cc(/C=N/NC(=O)Cc2ccc(C(F)(F)F)cc2[N+](=O)[O-])c1O	-0.46
O=C(CSc1nnc(-c2ccncc2)o1)c1cccc([N+](=O)[O-])c1	41.8
Cc1cccc(Cn2c(N(C)CCO)nc3c2c(=O)[nH]c(=O)n3C)c1	-1.51
C=C(C)CNC(=S)N/N=C(\C)c1ccc(-n2ccnc2)cc1	50.1
CCOC(=O)c1[nH]c(C)c(C(=O)Nc2ccc(F)cc2)c1C	-1
O=C(Nc1sc2c(c1C(=O)NC1CC1)CCCCCC2)c1ccco1	-5.06
COc1ccc(N2C(=O)NC(=O)/C(=C\c3cn(CC(=O)N4CCOCC4)c4ccccc34)C2=O)c(OC)c1	-8.14
COc1ccc(C(=O)Nc2nc3ccccc3s2)c(OC)c1	33.6
Cc1cc2[nH]c(=O)c(=O)[nH]c2cc1S(=O)(=O)N1CCC(C)CC1	-17.6
Cn1c(=O)n(CCc2ccccc2)c(=O)c2c1ncn2Cc1ccccc1	7.03
CCOC(=O)CC1(NC(=O)c2cc(COc3cncc(Cl)c3)on2)CCCCC1	7.96
O=C(c1ccc(-n2c(SCc3cc(F)ccc3F)nc3ccccc3c2=O)cc1)N1CCOCC1	25
O=c1oc(-c2cccs2)nc2sc3c(c12)CCC3	13.5
CCOC(=O)c1ccc(N2CN(CCc3ccccc3)CNC2=S)cc1	33.2
COc1cc(NC(=O)c2ccccc2)c(OC)cc1NC(=O)CN1CCOCC1	41.5
CN(C)CCCN1C(=O)c2oc3ccccc3c(=O)c2C1c1cccs1 (stereo unspecified)	-2.83

SMILES	inhibition [%]
O=C(O)CCN1C(=O)/C(=C\c2ccc(-c3nc4ccccc4s3)o2)SC1=S	-8.52
COc1ccc(C(=O)Nn2c(SCC(=O)NCc3ccccc3)nc3ccccc3c2=O)cc1	-11.9
CCC(=O)/C=C1\Sc2ccc(OC)cc2N1CC	2.23
O=C(CCCCCN1C(=O)c2cccc([N+](=O)[O-])c2C1=O)Nc1ccccc1F	50
O=C1Nc2ccccc2N(O)N1c1cc(-c2cccc(Cl)c2)no1	4.15
CCn1c(CSc2nc3ccccc3[nH]2)n[nH]c1=S	-3.29
CC(C)c1ccc(/C=C(\NC(=O)c2ccccc2)C(=O)NCCCn2ccnc2)cc1	7.23
Cc1cc(N(CN2CCCC2=O)C(=O)c2ccc(F)cc2)no1	-10.2
O=C(Nc1ccc(Cl)cc1)ON=C1CCCC1	-10.9
COc1ccccc1/C=C/CN1CCOCC1	1
CCOC(=O)c1cccc(NC(=O)CSc2nnc(COc3ccccc3)n2CC)c1	40.9
CN(C)N=C1c2cc(S(=O)(=O)N3CCOCC3)ccc2-c2ccc(S(=O)(=O)N3CCOCC3)cc21	2
Cc1ccc(-c2csc3ncnc(Sc4nnc(CN5CCCCCC5=O)o4)c23)cc1	79.7
O=C(c1cccc(Cl)c1)N1CCC(C(=O)N2CCN(Cc3ccccc3)CC2)CC1	-11
Cc1cc(C)cc(NC(=O)CSc2nnc(-c3ccccc3Br)o2)c1	-18.3
C=CCOC(=O)C1=C(C)N=C2SCCC(=O)N2C1c1ccc(OC(=O)c2ccco2)cc1 (stereo unspecified)	-11
COc1ccc(C(=O)/C=C/c2cccs2)c(OC(=O)c2cccc([N+](=O)[O-])c2)c1	39
O=C(CN1CCN(S(=O)(=O)c2ccc(Cl)cc2)CC1)NC(=O)NC1CCCCC1	2.1

Source: PubChem BioAssay AID434955 (Southern Research Specialized Biocontainment Screening …, 2010)
